Test results: PMC6042370
Results are given in words; binding and its absence hold for the method and conditions named. Binding seen in cells or lysates may run through a third protein. Some entries that bind do so weakly or less than the wild type. For some assays here: Tags and fused reporters may be left off the sequences shown.

Sequences of proteins named here, by UniProt entry; tags and fusion partners are left off. A change or cut given only in a name is not applied to a line headed by its entry.
UniProt O43791: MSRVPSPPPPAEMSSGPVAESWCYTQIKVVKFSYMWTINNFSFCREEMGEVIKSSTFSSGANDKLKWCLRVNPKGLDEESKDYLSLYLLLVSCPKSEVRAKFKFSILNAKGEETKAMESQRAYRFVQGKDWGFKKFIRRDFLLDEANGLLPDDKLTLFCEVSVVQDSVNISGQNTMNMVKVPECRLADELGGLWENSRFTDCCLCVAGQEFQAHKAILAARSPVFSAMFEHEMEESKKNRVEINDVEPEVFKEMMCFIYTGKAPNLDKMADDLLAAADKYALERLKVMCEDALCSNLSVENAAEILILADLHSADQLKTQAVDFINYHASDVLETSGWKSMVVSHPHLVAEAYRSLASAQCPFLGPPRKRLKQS

Key:
[1] = biological target: T1, FLAG-ATF2 (ATF2-WT) (human (cDNA from a 293T library)) (UniProt P15336); assay: co-IP; 293T cells co-transfected, lysed 24 h later in BC100 buffer; anti-FLAG M2 agarose overnight, elution with FLAG peptide, Western blot
T1 sequence: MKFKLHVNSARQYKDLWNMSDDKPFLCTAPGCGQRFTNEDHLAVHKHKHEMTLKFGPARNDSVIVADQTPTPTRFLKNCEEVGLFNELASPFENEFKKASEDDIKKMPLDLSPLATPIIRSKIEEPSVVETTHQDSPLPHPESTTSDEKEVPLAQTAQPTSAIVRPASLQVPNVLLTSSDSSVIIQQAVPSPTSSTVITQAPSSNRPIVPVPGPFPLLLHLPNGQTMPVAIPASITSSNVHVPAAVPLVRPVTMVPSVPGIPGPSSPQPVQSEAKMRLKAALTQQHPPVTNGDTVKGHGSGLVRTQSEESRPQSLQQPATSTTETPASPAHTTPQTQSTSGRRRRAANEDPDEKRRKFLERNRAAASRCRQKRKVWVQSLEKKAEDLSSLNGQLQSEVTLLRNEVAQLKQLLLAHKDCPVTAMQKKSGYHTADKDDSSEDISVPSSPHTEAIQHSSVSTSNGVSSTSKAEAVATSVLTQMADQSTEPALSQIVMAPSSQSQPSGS

[2] = biological target: T1, FLAG-ATF2 (ATF2-WT) (human (cDNA from a 293T library)); assay: co-IP; 293T cells transfected with wild-type SPOP and ATF2, with SPOP mutants (F125V, W131G or F133L) co-expressed; anti-FLAG IP, Western blot
[3] = biological target: T2, endogenous ATF2 (C4-2 cells) (human (endogenous in C4-2)) (UniProt P15336); assay: co-IP; endogenous proteins in C4-2 lysate, 20 uM MG132 for 8 h; IgG or anti-ATF2 antibody overnight at 4 C, protein A/G beads, Western blot
T2 sequence: T1 sequence

FLAG-SPOP (293T) = FLAG-SPOP (293T) (UniProt O43791); assay: co-IP; 293T cells co-transfected, lysed 24 h later in BC100 buffer; anti-FLAG M2 agarose overnight, elution with FLAG peptide, Western blot
[4] = biological target: FLAG-SPOP (C4-2, lentiviral) (UniProt O43791); assay: co-IP; C4-2 cells infected with lentivirus expressing FLAG-SPOP or control, 20 uM MG132 for 8 h; anti-FLAG IP, Western blot of endogenous proteins

For “Myc-SPOP (SPOP-WT, full-length) (from UniProt O43791 1-374)”, the binding [1] was “binds” and the binding [2] was “binds”.

With “Myc-SPOP-F102C (from UniProt O43791 1-374)” the binding [1] was “no binding”.

In the case of “Myc-SPOP-F125V (from UniProt O43791 1-374)”, the binding [1] is reported as “no binding”.

In the case of “Myc-SPOP-F133L (from UniProt O43791 1-374)”, the binding [1] is reported as “no binding”.

In the case of “Myc-SPOP-F133V (from UniProt O43791 1-374)”, the binding [1] is reported as “no binding”.

With “Myc-SPOP-K129E (from UniProt O43791 1-374)” the binding [1] was “no binding”.

“Myc-SPOP-K134N (from UniProt O43791 1-374)” was tested, and the binding [1] was “binds”.

“Myc-SPOP-S119N (from UniProt O43791 1-374)” was tested, and the binding [1] was “binds”.

For “Myc-SPOP-W131C (from UniProt O43791 1-374)”, the binding [1] was “no binding”.

In the case of “Myc-SPOP-W131G (from UniProt O43791 1-374)”, the binding [1] is reported as “no binding”.

For “Myc-SPOP-Y87C (from UniProt O43791 1-374)”, the binding [1] was “binds”.

With “Myc-SPOP-Y87N (from UniProt O43791 1-374)” the binding [1] was “binds”.

In the case of “endogenous SPOP (C4-2 cells) (from UniProt O43791 1-374)”, the binding [3] is reported as “binds”.

B1: Myc-ATF2 (protein, UniProt P15336 1-505)
chain: T1 sequence
In the case of B1, the binding (FLAG-SPOP (293T)) is reported as “binds”.

B2: endogenous ATF2 (C4-2 cells) (protein, UniProt P15336 1-505)
chain: T1 sequence
For B2, the binding [4] was “binds”.

B3: endogenous DEK (C4-2 cells) (protein, UniProt P35659 1-375)
chain: MSASAPAAEGEGTPTQPASEKEPEMPGPREESEEEEDEDDEEEEEEEKEKSLIVEGKREKKKVERLTMQVSSLQREPFTIAQGKGQKLCEIERIHFFLSKKKTDELRNLHKLLYNRPGTVSSLKKNVGQFSGFPFEKGSVQYKKKEEMLKKFRNAMLKSICEVLDLERSGVNSELVKRILNFLMHPKPSGKPLPKSKKTCSKGSKKERNSSGMARKAKRTKCPEILSDESSSDEDEKKNKEESSDDEDKESEEEPPKKTAKREKPKQKATSKSKKSVKSANVKKADSSTTKKNQNSSKKESESEDSSDDEPLIKKLKKPPTDEELKETIKKLLASANLEEVTMKQICKKVYENYPTYDLTERKDFIKTTVKELIS
With B3 the binding [4] was “binds”.
